The values below come from the supplement of paper PMC10126150.

Sequences with one replicate were seen in a single cluster, so their values are uncertain.
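Note: ATP exposure 15 min at 22 °C before imaging.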

The test system of the data set is ATP. In words: switch fluorescence ratio, 500 uM ATP over buffer (Cy3 cluster intensity, sum of 5 cycles each) (fold (ratio)); higher = stronger signal-on switching upon ATP binding; sequences stand for … in TCGTCGGCAGCGTCAGATGTGTATAAGAGACAGTTTTTTTTTTTTTTTTTTTTTTTTT…TC. To be noted: aptamer strand: ATP DNA aptamer (quencher-CACCTGGGGGAGTATTGCGGAGGAAGG + anchor), 100 nM annealed; ATP concentration: 500 uM; one replicate. The method in brief:
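The quencher-labelled ATP aptamer, at 100 nM, was annealed to Cy3-labelled switching-strand clusters on a modified Illumina MiSeq flow-cell. The clusters were imaged in selection buffer, then after 15 min with 500 uM ATP at 22 °C, and this buffer/ATP cycle ran five times with NaOH stripping and re-annealing between runs. Per-cluster fluorescence ratios, summed target-cycle over summed buffer-cycle Cy3 intensity, were averaged per switch-domain sequence. Clusters outside 100-1000 RFU were excluded.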
With TCTGGCGGGT, the switch fluorescence ratio was 0.986.
With CTGTCATAGG the figure was 1.01; with TTAAGGCTGT, 1.01.
With AAGAACAGGG the figure was 1.02; with GAGACTTAAT, 0.957.
Turning to ACATAGTGTT, the switch fluorescence ratio was 1.06.
In the case of CTGAGCGCAA, the switch fluorescence ratio is 3.83.
Consider TAAATGCATG, for which the switch fluorescence ratio turned out to be 1.02.
Then GGGTTCTTAG, with 0.975.
Take TTTATCTCAT: the switch fluorescence ratio worked out at 0.989.
With GATATCGCTC, the switch fluorescence ratio was found to be 1.07.
For GCCAGTTAGG, the switch fluorescence ratio came to 1.
Then AGATGGTGGC, with 1.31.
In the case of GAAACTCTAT, the switch fluorescence ratio turned out to be 1.01.
For GCATACCGCC, the switch fluorescence ratio came out at 1.31.
Then AATGGGAAAC, with 1.01.
With AAAAACCGGA the figure was 0.927; with TTGGTCAGGC, 1.01; with ATAGTCGGCA, 1.
With AGTCAGGGTA the figure was 0.972; with ACATATTCTG, 0.979; with TGTCCCCGC, 1.42.
On to CGAGGCGCTG, for which the switch fluorescence ratio came to 1.02.
Then TAACTAAGTA, with 1; and GGGAATGGAC, with 0.987; and CCCTGGAGGC, with 1.06.
For TAATGATATC, the switch fluorescence ratio was 1.06.
With TAAACCCTCG the figure was 1.06; with AGTTGAGTAA, 0.998; with GCCTCTGCGG, 1.2.
With TTCTCTTCCG the figure was 1.15; with GGCGTTTATG, 1.01; with TTCAGTGATG, 1.03.
Regarding GGCTTTGAAT, the switch fluorescence ratio was 0.963.
With AAAGTTGGTT the figure was 0.985.
Then TCGGTGTCTT, with 1.01; and TGTGCGTAAT, with 1.06.
For the sequence CTACATTTTC, the switch fluorescence ratio was determined as 1.03.
Regarding ACTTACATAC, the switch fluorescence ratio was 1.55.
On to AGGCGTTTCG, for which the switch fluorescence ratio turned out to be 1.03.
Then TGACTGGTGG, with 0.996.
As to GCTATGGCCA, the switch fluorescence ratio stood at 1.
Regarding GGGTTTCTTA, the switch fluorescence ratio amounted to 0.979.
As for ATCATTACCA, the switch fluorescence ratio came out at 0.985.
Consider TTATCTCAT, for which the switch fluorescence ratio came out at 1.02.
With ATCATAGGTA, the switch fluorescence ratio stood at 1.01.
As to GGATGAGAGA, the switch fluorescence ratio came to 1.01.
Consider AAGGTGGAAT, for which the switch fluorescence ratio is 1.26.
With CCTTACTTTC the figure was 1.1; with CAAATGGTAG, 1.02; with ATAGCACACC, 1.15.
With GGTATCCAGG the figure was 1.2; with TGCATTACGC, 1.26.
For the sequence GAGGCTGCCG, the switch fluorescence ratio came to 0.968.
Then CGTAAAACAT, with 0.988; and GTCATGCCCG, with 0.96; and AAGGGGCCAC, with 0.972.
With CATTTTCATG, the switch fluorescence ratio was 0.98.
Then CTTGGGTGGA, with 0.99.
CGCGGCGGGC: the switch fluorescence ratio is 1.08.
With TCCAGAATTA the figure was 0.957; with AGAGTGGCTG, 0.993.
Consider TTTACGCATC, for which the switch fluorescence ratio was 2.49.
Regarding TTGGTGTTGA, the switch fluorescence ratio stood at 1.03.
Then TGTTGGGCCG, with 1.49.
For the sequence TTTGACTGAT, the switch fluorescence ratio stood at 1.02.
Turning to TCCAGGCGGG, the switch fluorescence ratio came out at 1.01.
Then ATGAGGCTCG, with 0.951; and TAACGAGGTG, with 1.03; and GTTATCTACC, with 1.01.
With ATACTCGTCG the figure was 0.97; with TCCACTGCTG, 1.09.
Then TCACAGTTTG, with 1.02; and CCGACCTTTT, with 1.46; and AAGCCCTCGA, with 0.96.
On to TCTTTTGCAG, for which the switch fluorescence ratio stood at 1.03.
With GGGACGCCCT the figure was 1.06; with GGGAACTTGT, 1.05.
